Some of the results follow.

The assay relates to S. aureus RN4220. The assay is described as follows: growth inhibition call (relative growth <= 0.2). The conditions noted are these: 50 µM.
On to `O=C(C[C@@H]1CC[C@H](NC(=O)c2cnccn2)[C@H](CO)O1)NCc1ccccc1F`, for which the growth inhibition call was “inactive”.

On to `Cc1ccc(S(=O)(=O)Nc2ccc3c(c2)CC(=O)N([C@@H](C)CO)C[C@H](C)[C@H](CN(C)S(=O)(=O)c2ccccc2)O3)cc1`, for which the growth inhibition call is “inactive”.

For the compound `O=C(N[C@H]1CC[C@@H](CC(=O)N2CCOCC2)O[C@@H]1CO)c1ccc2c(c1)OCO2`, the growth inhibition call was “inactive”.

As to `C[C@@H]1CN([C@H](C)CO)C(=O)c2cc(NC(=O)Cn3cnnn3)ccc2O[C@H]1CN(C)Cc1ccc(C(F)(F)F)cc1`, the growth inhibition call is “inactive”.

As to `COc1ccc(COCC23Oc4ccccc4[C@H]([C@H]2CO)n2c(c4ccccc4c(-c4ccccc4)c2=O)N3C)cc1`, the growth inhibition call was “inactive”.

In the case of `COc1ccc(CN(C)C[C@H]2OCCCC[C@H](C)Oc3ccc(NC(=O)c4ccncc4)cc3C(=O)N([C@H](C)CO)C[C@@H]2C)cc1`, the growth inhibition call was “inactive”.

Take `CNC[C@@H]1OCCCC[C@@H](C)Oc2ccc(NC(=O)Nc3ccc(C(F)(F)F)cc3)cc2C(=O)N([C@@H](C)CO)C[C@H]1C`: the growth inhibition call is “inactive”.

For the compound `O=C(O)[C@H](O)[C@H](O)[C@H](O)[C@H](O)CO`, the growth inhibition call was “inactive”.

On to `COC(=O)CNC(=O)C(=O)OC`, for which the growth inhibition call was “inactive”.

As for `C[C@@H]1CN([C@@H](C)CO)C(=O)c2cccc(NC(=O)c3nc4ccccc4s3)c2O[C@H]1CN(C)S(=O)(=O)c1cn(C)cn1`, the growth inhibition call was “inactive”.

For the compound `FC(F)(F)c1ccc(CSc2c[nH]c3ccccc23)cc1`, the growth inhibition call is “active”.

For the compound `Cc1noc(C)c1NC(=O)Nc1ccc2c(c1)C(=O)N([C@H](C)CO)C[C@@H](C)[C@H](CN(C)S(=O)(=O)c1ccccc1)OCCCC[C@H](C)O2`, the growth inhibition call is “inactive”.

The values above are taken from the antibiotic and cytotoxicity screens of Wong et al. (2023).
